# Test results taken from the supplement of paper PMC8728848.
# The list shows a part of the results.
# Key:
# Assay in all cases: glycan array binding signal (z-score within array); higher = stronger binding
# Details in all cases: glycan notation: IUPAC condensed, linker removed
# [1] = target: Gal(b1-4)GlcNAc(b1-2)Man(a1-3)[Gal(b1-4)GlcNAc(b1-2)Man(a1-6)]Man(b1-4)GlcNAc(b1-4)GlcNAc
# Procedure, shortened: (§1)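 The binding signal is a Z-score computed within each array. Data were drawn from 3228 arrays in the Consortium for Functional Glycomics database, restricted to those with a known protein sequence. Scores were averaged over arrays of the same protein sequence at different concentrations or buffers, and over linkers, and negative values can be taken as non-binding.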
# [2] = target: Gal(b1-4)GlcNAc(b1-2)Man(a1-3)[Gal(b1-4)GlcNAc(b1-2)Man(a1-6)]Man(b1-4)GlcNAc(b1-4)[Fuc(a1-6)]GlcNAc
# Procedure, shortened: as §1
# [3] = target: Gal(b1-4)GlcNAc(b1-2)Man(a1-3)[Gal(b1-4)GlcNAc(b1-2)Man(a1-6)][Gal(b1-4)GlcNAc(b1-4)]Man(b1-4)GlcNAc(b1-4)[Fuc(a1-6)]GlcNAc
# Procedure, shortened: as §1
# [4] = target: Gal(b1-4)GlcNAc(b1-2)Man(a1-3)[Gal(b1-4)GlcNAc(b1-2)Man(a1-6)][GlcNAc(b1-4)]Man(b1-4)GlcNAc(b1-4)[Fuc(a1-6)]GlcNAc
# Procedure, shortened: as §1
# [5] = target: Gal(b1-4)GlcNAc(b1-2)Man(a1-3)[GlcNAc(b1-2)Man(a1-6)]Man(b1-4)GlcNAc(b1-4)GlcNAc
# Procedure, shortened: as §1
# [6] = target: Gal(b1-4)GlcNAc(b1-2)Man(a1-3)[GlcNAc(b1-4)][Gal(b1-4)GlcNAc(b1-2)Man(a1-6)]Man(b1-4)GlcNAc(b1-4)GlcNAc
# Procedure, shortened: as §1
# [7] = target: Gal(b1-4)GlcNAc(b1-2)Man(a1-3)[Man(a1-6)]Man(b1-4)GlcNAc(b1-4)GlcNAc
# Procedure, shortened: as §1
# [8] = target: Gal(b1-4)GlcNAc(b1-2)Man(a1-6)Man(b1-4)GlcNAc(b1-4)GlcNAc
# Procedure, shortened: as §1
# [9] = target: Gal(b1-4)GlcNAc(b1-2)Man(a1-6)[GlcNAc(b1-2)Man(a1-3)]Man(b1-4)GlcNAc(b1-4)GlcNAc
# Procedure, shortened: as §1
# [10] = target: Gal(b1-4)GlcNAc(b1-2)Man(a1-6)[Man(a1-3)]Man(b1-4)GlcNAc(b1-4)GlcNAc
# Procedure, shortened: as §1
# [11] = target: Gal(b1-4)GlcNAc(b1-2)[Gal(b1-4)GlcNAc(b1-4)]Man(a1-3)[Gal(b1-4)GlcNAc(b1-2)Man(a1-6)]Man(b1-4)GlcNAc(b1-4)GlcNAc
# Procedure, shortened: as §1
# [12] = target: Gal(b1-4)GlcNAc(b1-2)[Gal(b1-4)GlcNAc(b1-4)]Man(a1-3)[Gal(b1-4)GlcNAc(b1-2)[Gal(b1-4)GlcNAc(b1-6)]Man(a1-6)]Man(b1-4)GlcNAc(b1-4)GlcNAc
# Procedure, shortened: as §1
# [13] = target: Gal(b1-4)GlcNAc(b1-2)[Gal(b1-4)GlcNAc(b1-4)]Man(a1-3)[GlcNAc(b1-4)][Gal(b1-4)GlcNAc(b1-2)Man(a1-6)]Man(b1-4)GlcNAc(b1-4)GlcNAc
# Procedure, shortened: as §1
# [14] = target: Gal(b1-4)GlcNAc(b1-2)[Gal(b1-4)GlcNAc(b1-4)]Man(a1-3)[GlcNAc(b1-4)][Gal(b1-4)GlcNAc(b1-2)[Gal(b1-4)GlcNAc(b1-6)]Man(a1-6)]Man(b1-4)GlcNAc(b1-4)GlcNAc
# Procedure, shortened: as §1
# [15] = target: Gal(b1-4)GlcNAc(b1-2)[Gal(b1-4)GlcNAc(b1-6)]Man(a1-6)[Gal(b1-4)GlcNAc(b1-2)Man(a1-3)]Man(b1-4)GlcNAc(b1-4)GlcNAc
# Procedure, shortened: as §1
# [16] = target: Gal(b1-4)GlcNAc(b1-2)[Gal(b1-4)GlcNAc(b1-6)]Man(a1-6)[Gal(b1-4)GlcNAc(b1-2)Man(a1-3)]Man(b1-4)GlcNAc(b1-4)[Fuc(a1-6)]GlcNAc
# Procedure, shortened: as §1
# [17] = target: Gal(b1-4)GlcNAc(b1-2)[Gal(b1-4)GlcNAc(b1-6)]Man(a1-6)[GlcNAc(b1-4)][Gal(b1-4)GlcNAc(b1-2)Man(a1-3)]Man(b1-4)GlcNAc(b1-4)GlcNAc
# Procedure, shortened: as §1
# [18] = target: Gal(b1-4)GlcNAc(b1-2)[Gal(b1-4)GlcNAc(b1-6)]Man(a1-6)[GlcNAc(b1-4)][Gal(b1-4)GlcNAc(b1-2)[Gal(b1-4)GlcNAc(b1-4)]Man(a1-3)]Man(b1-4)GlcNAc(b1-4)[Fuc(a1-6)]GlcNAc
# Procedure, shortened: as §1
# [19] = target: Gal(b1-4)GlcNAc(b1-3)Gal(b1-3)GalNAc
# Procedure, shortened: as §1
# [20] = target: Gal(b1-4)GlcNAc(b1-3)Gal(b1-3)GlcNAc
# Procedure, shortened: as §1
# [21] = target: Gal(b1-4)GlcNAc(b1-3)Gal(b1-4)Glc
# Procedure, shortened: as §1
# [22] = target: Gal(b1-4)GlcNAc(b1-3)Gal(b1-4)GlcNAc
# Procedure, shortened: as §1
binder,measurement,setting,value
EEA (Euonymus europaeus) (protein) MASTIIATGPTYRVYCRAAPNYNMIVGKGVAFLAPIDETNELQYWYKDDTYSYIKDEAGLPAFSLVNKATGLTLKHSNHHPVPVKLVTYNPNVVDESVLWSQADDRGDGYSAIRSLTNPASHLEAAPLNDWSYNGAIIMGGVWIDAYNQQWKIEPHTG,glycan array binding signal (z-score),[1],-0.229
same,glycan array binding signal (z-score),[2],-0.044
same,glycan array binding signal (z-score),[3],-0.282
same,glycan array binding signal (z-score),[4],-0.262
same,glycan array binding signal (z-score),[5],-0.235
same,glycan array binding signal (z-score),[6],-0.219
same,glycan array binding signal (z-score),[7],-0.243
same,glycan array binding signal (z-score),[8],-0.249
same,glycan array binding signal (z-score),[9],-0.27
same,glycan array binding signal (z-score),[10],-0.212
same,glycan array binding signal (z-score),[11],-0.173
same,glycan array binding signal (z-score),[12],-0.226
same,glycan array binding signal (z-score),[13],-0.073
same,glycan array binding signal (z-score),[14],-0.18
same,glycan array binding signal (z-score),[15],-0.213
same,glycan array binding signal (z-score),[16],-0.193
same,glycan array binding signal (z-score),[17],-0.201
same,glycan array binding signal (z-score),[18],-0.223
same,glycan array binding signal (z-score),[19],-0.23
same,glycan array binding signal (z-score),[20],-0.101
same,glycan array binding signal (z-score),[21],-0.156
same,glycan array binding signal (z-score),[22],-0.208
